Some of the results follow.
Experiments:
Assay in all cases: glycan array binding signal (z-score within array); higher = stronger binding
Settings in all cases: glycan notation: IUPAC condensed, linker removed
[1] = biological target: GlcA3S(b1-3)Gal(b1-4)GlcNAc(b1-3)Gal(b1-4)Glc
How it was run: (§1)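 Negative Z-scores can be read as non-binding. The Z-score is calculated within each array and then averaged across arrays of one protein sequence at different concentrations or buffers and across linkers. Arrays, 3228 in all, were curated from the Consortium for Functional Glycomics database and kept only where the protein sequence was available.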

[2] = biological target: GlcNAc(a1-3)Gal(b1-4)GlcNAc
How it was run: as §1

[3] = biological target: GlcNAc(a1-4)Gal(b1-3)GlcNAc
How it was run: as §1

[4] = biological target: GlcNAc(a1-4)Gal(b1-4)GalNAc
How it was run: as §1

[5] = biological target: GlcNAc(a1-4)Gal(b1-4)GlcNAc
How it was run: as §1

[6] = biological target: GlcNAc(a1-4)Gal(b1-4)GlcNAc(b1-3)Gal(b1-4)Glc
How it was run: as §1

[7] = biological target: GlcNAc(a1-4)Gal(b1-4)GlcNAc(b1-3)Gal(b1-4)GlcNAc
How it was run: as §1

[8] = biological target: GlcNAc(a1-4)Gal(b1-4)GlcNAc(b1-3)Gal(b1-4)GlcNAc(b1-3)Gal(b1-4)GlcNAc
How it was run: as §1

[9] = biological target: GlcNAc(a1-4)Gal(b1-4)GlcNAc(b1-3)Gal(b1-4)[Fuc(a1-3)]GlcNAc(b1-3)Gal(b1-4)[Fuc(a1-3)]GlcNAc
How it was run: as §1

[10] = biological target: GlcNAc(a1-6)Gal(b1-4)GlcNAc
How it was run: as §1

[11] = biological target: GlcNAc(b1-2)Gal(b1-3)GalNAc
How it was run: as §1

[12] = biological target: GlcNAc(b1-2)Man(a1-3)[GlcNAc(b1-2)Man(a1-6)]Man(b1-4)GlcNAc(b1-4)GlcNAc
How it was run: as §1

[13] = biological target: GlcNAc(b1-2)Man(a1-3)[GlcNAc(b1-2)Man(a1-6)]Man(b1-4)GlcNAc(b1-4)[Fuc(a1-6)]GlcNAc
How it was run: as §1

[14] = biological target: GlcNAc(b1-2)Man(a1-3)[GlcNAc(b1-4)][GlcNAc(b1-2)Man(a1-6)]Man(b1-4)GlcNAc(b1-4)GlcNAc
How it was run: as §1

[15] = biological target: GlcNAc(b1-2)Man(a1-3)[GlcNAc(b1-4)][GlcNAc(b1-2)Man(a1-6)]Man(b1-4)GlcNAc(b1-4)[Fuc(a1-6)]GlcNAc
How it was run: as §1

[16] = biological target: GlcNAc(b1-2)[GlcNAc(b1-4)]Man(a1-3)[GlcNAc(b1-2)Man(a1-6)]Man(b1-4)GlcNAc(b1-4)GlcNAc
How it was run: as §1

[17] = biological target: GlcNAc(b1-2)[GlcNAc(b1-4)]Man(a1-3)[GlcNAc(b1-4)][GlcNAc(b1-2)Man(a1-6)]Man(b1-4)GlcNAc(b1-4)GlcNAc
How it was run: as §1

[18] = biological target: GlcNAc(b1-2)[GlcNAc(b1-4)]Man(a1-3)[GlcNAc(b1-4)][GlcNAc(b1-2)[GlcNAc(b1-6)]Man(a1-6)]Man(b1-4)GlcNAc(b1-4)GlcNAc
How it was run: as §1

[19] = biological target: GlcNAc(b1-2)[GlcNAc(b1-4)]Man(a1-3)[GlcNAc(b1-4)][GlcNAc(b1-2)[GlcNAc(b1-6)]Man(a1-6)]Man(b1-4)GlcNAc(b1-4)[Fuc(a1-6)]GlcNAc
How it was run: as §1

[20] = biological target: GlcNAc(b1-2)[GlcNAc(b1-6)]Man(a1-6)[GlcNAc(b1-2)Man(a1-3)]Man(b1-4)GlcNAc(b1-4)GlcNAc
How it was run: as §1

[21] = biological target: GlcNAc(b1-2)[GlcNAc(b1-6)]Man(a1-6)[GlcNAc(b1-2)Man(a1-3)]Man(b1-4)GlcNAc(b1-4)[Fuc(a1-6)]GlcNAc
How it was run: as §1

[22] = biological target: GlcNAc(b1-2)[GlcNAc(b1-6)]Man(a1-6)[GlcNAc(b1-2)Man(a1-3)][GlcNAc(b1-4)]Man(b1-4)GlcNAc(b1-4)GlcNAc
How it was run: as §1

[23] = biological target: GlcNAc(b1-2)[GlcNAc(b1-6)]Man(a1-6)[GlcNAc(b1-4)][GlcNAc(b1-2)Man(a1-3)]Man(b1-4)GlcNAc(b1-4)GlcNAc
How it was run: as §1

GlcNAc(b1-3)Fuc = biological target: GlcNAc(b1-3)Fuc
How it was run: as §1

GlcNAc(b1-3)Gal = biological target: GlcNAc(b1-3)Gal
How it was run: as §1

[24] = biological target: GlcNAc(b1-3)Gal(b1-3)GalNAc
How it was run: as §1

GlcNAc(b1-3)Gal(b1-4)Glc = biological target: GlcNAc(b1-3)Gal(b1-4)Glc
How it was run: as §1

[25] = biological target: GlcNAc(b1-3)Gal(b1-4)GlcNAc
How it was run: as §1

[26] = biological target: GlcNAc(b1-3)Gal(b1-4)GlcNAc(b1-2)Man(a1-3)[GlcNAc(b1-3)Gal(b1-4)GlcNAc(b1-2)Man(a1-6)]Man(b1-4)GlcNAc(b1-4)GlcNAc
How it was run: as §1

[27] = biological target: GlcNAc(b1-3)Gal(b1-4)GlcNAc(b1-2)Man(a1-3)[GlcNAc(b1-3)Gal(b1-4)GlcNAc(b1-2)Man(a1-6)]Man(b1-4)GlcNAc(b1-4)[Fuc(a1-6)]GlcNAc
How it was run: as §1

[28] = biological target: GlcNAc(b1-3)Gal(b1-4)GlcNAc(b1-2)[GlcNAc(b1-3)Gal(b1-4)GlcNAc(b1-6)]Man(a1-6)[GlcNAc(b1-3)Gal(b1-4)GlcNAc(b1-2)Man(a1-3)]Man(b1-4)GlcNAc(b1-4)GlcNAc
How it was run: as §1

[29] = biological target: GlcNAc(b1-3)Gal(b1-4)GlcNAc(b1-3)Gal(b1-4)GlcNAc
How it was run: as §1

[30] = biological target: GlcNAc(b1-3)Gal(b1-4)GlcNAc(b1-3)Gal(b1-4)GlcNAc(b1-2)Man(a1-3)[GlcNAc(b1-3)Gal(b1-4)GlcNAc(b1-3)Gal(b1-4)GlcNAc(b1-2)Man(a1-6)]Man(b1-4)GlcNAc(b1-4)GlcNAc
How it was run: as §1

[31] = biological target: GlcNAc(b1-3)Gal(b1-4)GlcNAc(b1-3)Gal(b1-4)GlcNAc(b1-2)Man(a1-3)[GlcNAc(b1-3)Gal(b1-4)GlcNAc(b1-3)Gal(b1-4)GlcNAc(b1-2)Man(a1-6)]Man(b1-4)GlcNAc(b1-4)[Fuc(a1-6)]GlcNAc
How it was run: as §1

[32] = biological target: GlcNAc(b1-3)Gal(b1-4)GlcNAc(b1-3)Gal(b1-4)GlcNAc(b1-2)[GlcNAc(b1-3)Gal(b1-4)GlcNAc(b1-3)Gal(b1-4)GlcNAc(b1-6)]Man(a1-6)[GlcNAc(b1-3)Gal(b1-4)GlcNAc(b1-3)Gal(b1-4)GlcNAc(b1-2)Man(a1-3)]Man(b1-4)GlcNAc(b1-4)[Fuc(a1-6)]GlcNAc
How it was run: as §1

[33] = biological target: GlcNAc(b1-3)Gal(b1-4)GlcNAc(b1-3)Gal(b1-4)GlcNAc(b1-3)Gal(b1-4)GlcNAc(b1-2)Man(a1-3)[GlcNAc(b1-3)Gal(b1-4)GlcNAc(b1-3)Gal(b1-4)GlcNAc(b1-3)Gal(b1-4)GlcNAc(b1-2)Man(a1-6)]Man(b1-4)GlcNAc(b1-4)GlcNAc
How it was run: as §1

[34] = biological target: GlcNAc(b1-3)Gal(b1-4)GlcNAc(b1-3)Gal(b1-4)GlcNAc(b1-3)Gal(b1-4)GlcNAc(b1-2)Man(a1-3)[GlcNAc(b1-3)Gal(b1-4)GlcNAc(b1-3)Gal(b1-4)GlcNAc(b1-3)Gal(b1-4)GlcNAc(b1-2)Man(a1-6)]Man(b1-4)GlcNAc(b1-4)[Fuc(a1-6)]GlcNAc
How it was run: as §1

[35] = biological target: GlcNAc(b1-3)Gal(b1-4)GlcNAc(b1-3)Gal(b1-4)GlcNAc(b1-3)Gal(b1-4)GlcNAc(b1-2)[GlcNAc(b1-3)Gal(b1-4)GlcNAc(b1-3)Gal(b1-4)GlcNAc(b1-3)Gal(b1-4)GlcNAc(b1-6)]Man(a1-6)[GlcNAc(b1-3)Gal(b1-4)GlcNAc(b1-3)Gal(b1-4)GlcNAc(b1-3)Gal(b1-4)GlcNAc(b1-2)Man(a1-3)]Man(b1-4)GlcNAc(b1-4)[Fuc(a1-6)]GlcNAc
How it was run: as §1

B1: rAAL-2 (Agrocybe aegerita) (protein)
chain: MTSNVITQDLPIPVASRGFADIVGFGLDGVVIGRNAVNLQPFLAVKNFAQNAGGWLTTKHVRLIADTTGTGKGDIVGFGNAGVYVSVNNGKNTFADPPKMVIANFGYDAGGWRVEKHLRYLADIRKIGRADIIGFGEKGVLVSRNNGGLNFGPATLVLKDFGYDAGGWRLDRHLRFLADVTGNGHLDIVGFGDKHVFISRNNGDGTFAPAKSVIDNFCIDAGGWKIGDHPRFVADLTGDGTADIIGCGKAGCWVALNNGGGVFGQVKLVINDFGTDKGWQAAKHPRFIADLTGNGRGDVVGFGNAGVYVALNNGDGTFQSAKLVLKDFGVQQGWTVSKHRRFVVDLTGDGCADIIGFGEKETLVSYNDGKGNFGPVKALTNDFSFSGGKWAPETTVCWMANLDSSRH
glycan array binding signal (z-score) [1]: -0.402 | glycan array binding signal (z-score) [2]: 4.67 | glycan array binding signal (z-score) [3]: 3.84 | glycan array binding signal (z-score) [4]: 1.71 | glycan array binding signal (z-score) [5]: 3.35 | glycan array binding signal (z-score) [6]: 4.64 | glycan array binding signal (z-score) [7]: 2.8 | glycan array binding signal (z-score) [8]: 6.15 | glycan array binding signal (z-score) [9]: 3.9 | glycan array binding signal (z-score) [10]: 2.93 | glycan array binding signal (z-score) [11]: -0.431 | glycan array binding signal (z-score) [12]: 0.102 | glycan array binding signal (z-score) [13]: -0.279 | glycan array binding signal (z-score) [14]: -0.244 | glycan array binding signal (z-score) [15]: -0.068 | glycan array binding signal (z-score) [16]: 0.091 | glycan array binding signal (z-score) [17]: -0.29 | glycan array binding signal (z-score) [18]: -0.333 | glycan array binding signal (z-score) [19]: -0.198 | glycan array binding signal (z-score) [20]: 0.345 | glycan array binding signal (z-score) [21]: -0.07 | glycan array binding signal (z-score) [22]: -0.251 | glycan array binding signal (z-score) [23]: -0.611 | glycan array binding signal (z-score) (GlcNAc(b1-3)Fuc): 1.48 | glycan array binding signal (z-score) (GlcNAc(b1-3)Gal): 2.17 | glycan array binding signal (z-score) [24]: 2.02 | glycan array binding signal (z-score) (GlcNAc(b1-3)Gal(b1-4)Glc): 2.55 | glycan array binding signal (z-score) [25]: 4.11 | glycan array binding signal (z-score) [26]: 3.65 | glycan array binding signal (z-score) [27]: 3.77 | glycan array binding signal (z-score) [28]: 2.29 | glycan array binding signal (z-score) [29]: 3.77 | glycan array binding signal (z-score) [30]: 3.92 | glycan array binding signal (z-score) [31]: 4.05 | glycan array binding signal (z-score) [32]: 3.39 | glycan array binding signal (z-score) [33]: 2.85 | glycan array binding signal (z-score) [34]: 4.52 | glycan array binding signal (z-score) [35]: 3.03

From the supplement of paper PMC8728848
